From patent publication US20240076343A1
Blank lines part the entries; values can stand above or below the binder they belong to.

Experiments:
Experiment in all cases: cell-based or functional assay
[1] = biological target: high-affinity hIL-2 receptor (IL-2Rαβγ) (human) (UniProt P01589)
[2] = biological target: high-affinity hIL-2 receptor (IL-2Rαβγ) on NK-92 cells (human) (UniProt P01589)
[3] = biological target: intermediate affinity hIL-2 receptor (hIL-2Rβγ) on TF1+IL-2Rβ cells (human) (UniProt P14784)
[4] = biological target: intermediate affinity hIL-2 receptor complex (IL-2Rβγ) (human) (UniProt P14784)

- Fold change from rhIL-2 (NK-92), pSTAT5 titration [1]: 6 fold
- Fold change from rhIL-2 (NK-92) [2]: 1 fold
- Fold change from rhIL-2 (TF1 + IL-2Rβ) [3]: 1 fold
- Fold change from rhIL-2 (TF1 + IL-2Rβ), pSTAT5 titration [4]: 0 fold
B1: 1H3-hIgG1-L6-hIL-2 (E62A) (protein)
heavy: EVQLVESGGGLVQPGRSLKLSCAVSGFTFSDYAMAWVRQAPKKGLEWVATISYDGSRTYYRDSVKGRFTISRDNAKITLYLQMDSLRSEDTATYYCARHGSGYFDYWGQGVMVTVSS[not shown - about 450 residues with a human IgG1 Fc and changes]
light: DTVLTQSPALAVSPGERVTISCRASESVRTGVHWYQQKPGQQPKLLIYGASNLESGVPARFSGSGSGTDFTLTIDPVEADDTATYFCQQSWNDPFTFGSGTKLEIKRTVAAPSVFIFPPSDEQLKSGTASVVCLLNNFYPREAKVQWKVDNALQSGNSQESVTEQDSKDSTYSLSSTLTLSKADYEKHKVYACEVTHQGLSSPVTKSFNRGEC

- Fold change from hIL-2 (NK-92), pSTAT5 fixed conc. [1]: 15 fold
- Agonistic Activity (NK-92) [2]: 80%
- Fold change from rhIL-2 (NK-92) [2]: 61 fold
- Agonistic Activity (TF1 + IL-2Rβ) [3]: 80%
- Fold change from rhIL-2 (TF1 + IL-2Rβ) [3]: 554 fold
- Fold change from hIL-2 (TF1 + IL-2Rβ), pSTAT5 fixed conc. [4]: 2 fold
B2: 1H3-hIgG1-L6-hIL-2 (D20A/Y45A) (protein)
heavy: EVQLVESGGGLVQPGRSLKLSCAVSGFTFSDYAMAWVRQAPKKGLEWVATISYDGSRTYYRDSVKGRFTISRDNAKITLYLQMDSLRSEDTATYYCARHGSGYFDYWGQGVMVTVSS[not shown - about 450 residues with a human IgG1 Fc and changes]
light: B1 light

- Fold change from rhIL-2 (NK-92), pSTAT5 titration [1]: > 10000 fold
- Fold change from hIL-2 (NK-92) [2]: 10 fold
- Fold change from rhIL-2 (NK-92) [2]: 239 fold
- Agonistic Activity (TF1 + IL-2Rβ) [3]: 50 to 70%
- Fold change from rhIL-2 (TF1 + IL-2Rβ), pSTAT5 titration [4]: 2770 fold
B3: 1H3-hIgG1-L6-hIL-2 (D20H) (protein)
heavy: EVQLVESGGGLVQPGRSLKLSCAVSGFTFSDYAMAWVRQAPKKGLEWVATISYDGSRTYYRDSVKGRFTISRDNAKITLYLQMDSLRSEDTATYYCARHGSGYFDYWGQGVMVTVSS[not shown - about 450 residues with a human IgG1 Fc and changes]
light: B1 light

- Fold change from hIL-2 (NK-92), pSTAT5 fixed conc. [1]: 15 fold
- Fold change from rhIL-2 (NK-92), pSTAT5 titration [1]: > 10000 fold
- Agonistic Activity (NK-92) [2]: 70%
- Fold change from rhIL-2 (NK-92) [2]: 1290 fold
- Agonistic Activity (TF1 + IL-2Rβ) [3]: 70%
- Fold change from rhIL-2 (TF1 + IL-2Rβ) [3]: 687 fold
- Fold change from hIL-2 (TF1 + IL-2Rβ), pSTAT5 fixed conc. [4]: 2 fold
- Fold change from rhIL-2 (TF1 + IL-2Rβ), pSTAT5 titration [4]: 17 fold
B4: 1H3-hIgG1-L6-hIL-2 (D20A/F42S) (protein)
heavy: EVQLVESGGGLVQPGRSLKLSCAVSGFTFSDYAMAWVRQAPKKGLEWVATISYDGSRTYYRDSVKGRFTISRDNAKITLYLQMDSLRSEDTATYYCARHGSGYFDYWGQGVMVTVSS[not shown - about 450 residues with a human IgG1 Fc and changes]
light: B1 light

- Agonistic Activity (NK-92), pSTAT5 titration [1]: 80%
- Fold change from rhIL-2 (NK-92), pSTAT5 titration [1]: 1 fold
- Fold change from rhIL-2 (NK-92) [2]: 1 fold
- Fold change from rhIL-2 (TF1 + IL-2Rβ) [3]: 1 fold
- Fold change from rhIL-2 (TF1 + IL-2Rβ), pSTAT5 titration [4]: 0 fold
B5: 1H3-hIgG1-L6-hIL-2 (L72H) (protein)
heavy: EVQLVESGGGLVQPGRSLKLSCAVSGFTFSDYAMAWVRQAPKKGLEWVATISYDGSRTYYRDSVKGRFTISRDNAKITLYLQMDSLRSEDTATYYCARHGSGYFDYWGQGVMVTVSS[not shown - about 450 residues with a human IgG1 Fc and changes]
light: B1 light

- Fold change from hIL-2 (NK-92), pSTAT5 fixed conc. [1]: 18 fold
- Agonistic Activity (NK-92) [2]: 60%
- Fold change from rhIL-2 (NK-92) [2]: 363 fold
- Agonistic Activity (TF1 + IL-2Rβ) [3]: 70%
- Fold change from rhIL-2 (TF1 + IL-2Rβ) [3]: 729 fold
- Fold change from hIL-2 (TF1 + IL-2Rβ), pSTAT5 fixed conc. [4]: 3 fold
B6: 1H3-hIgG1-L6-hIL-2 (D20A/Y45D) (protein)
heavy: EVQLVESGGGLVQPGRSLKLSCAVSGFTFSDYAMAWVRQAPKKGLEWVATISYDGSRTYYRDSVKGRFTISRDNAKITLYLQMDSLRSEDTATYYCARHGSGYFDYWGQGVMVTVSS[not shown - about 450 residues with a human IgG1 Fc and changes]
light: B1 light

- Fold change from hIL-2 (NK-92), pSTAT5 fixed conc. [1]: 16 fold
- Agonistic Activity (NK-92) [2]: 10%
- Fold change from rhIL-2 (NK-92) [2]: 1470 fold
- Agonistic Activity (TF1 + IL-2Rβ) [3]: 80%
- Fold change from rhIL-2 (TF1 + IL-2Rβ) [3]: 622 fold
- Fold change from hIL-2 (TF1 + IL-2Rβ), pSTAT5 fixed conc. [4]: 2 fold
B7: 1H3-hIgG1-L6-hIL-2 (D20A/F42T) (protein)
heavy: EVQLVESGGGLVQPGRSLKLSCAVSGFTFSDYAMAWVRQAPKKGLEWVATISYDGSRTYYRDSVKGRFTISRDNAKITLYLQMDSLRSEDTATYYCARHGSGYFDYWGQGVMVTVSS[not shown - about 450 residues with a human IgG1 Fc and changes]
light: B1 light

- Fold change from hIL-2 (NK-92), pSTAT5 fixed conc. [1]: 18 fold
- Fold change from rhIL-2 (NK-92), pSTAT5 titration [1]: 4720 fold
- Agonistic Activity (NK-92) [2]: 60%
- Fold change from rhIL-2 (NK-92) [2]: 1410 fold
- Agonistic Activity (TF1 + IL-2Rβ) [3]: 70%
- Fold change from rhIL-2 (TF1 + IL-2Rβ) [3]: 486 fold
- Fold change from hIL-2 (TF1 + IL-2Rβ), pSTAT5 fixed conc. [4]: 3 fold
- Fold change from rhIL-2 (TF1 + IL-2Rβ), pSTAT5 titration [4]: 32 fold
B8: 1H3-hIgG1-L6-hIL-2 (D20A/Y45E) (protein)
heavy: EVQLVESGGGLVQPGRSLKLSCAVSGFTFSDYAMAWVRQAPKKGLEWVATISYDGSRTYYRDSVKGRFTISRDNAKITLYLQMDSLRSEDTATYYCARHGSGYFDYWGQGVMVTVSS[not shown - about 450 residues with a human IgG1 Fc and changes]
light: B1 light

- Fold change from hIL-2 (NK-92), pSTAT5 fixed conc. [1]: 18 fold
- Agonistic Activity (NK-92) [2]: 30%
- Fold change from rhIL-2 (NK-92) [2]: 5800 fold
- Agonistic Activity (TF1 + IL-2Rβ) [3]: 80%
- Fold change from rhIL-2 (TF1 + IL-2Rβ) [3]: 579 fold
- Fold change from hIL-2 (TF1 + IL-2Rβ), pSTAT5 fixed conc. [4]: 2 fold
B9: 1H3-hIgG1-L6-hIL-2 (D20A/F42V) (protein)
heavy: EVQLVESGGGLVQPGRSLKLSCAVSGFTFSDYAMAWVRQAPKKGLEWVATISYDGSRTYYRDSVKGRFTISRDNAKITLYLQMDSLRSEDTATYYCARHGSGYFDYWGQGVMVTVSS[not shown - about 450 residues with a human IgG1 Fc and changes]
light: B1 light

- Fold change from rhIL-2 (NK-92), pSTAT5 titration [1]: 3 fold
- Fold change from rhIL-2 (NK-92) [2]: 1 fold
- Fold change from rhIL-2 (TF1 + IL-2Rβ) [3]: 1 fold
- Fold change from rhIL-2 (TF1 + IL-2Rβ), pSTAT5 titration [4]: 0 fold
B10: 1H3-hIgG1-L6-hIL-2 (E68R) (protein)
heavy: EVQLVESGGGLVQPGRSLKLSCAVSGFTFSDYAMAWVRQAPKKGLEWVATISYDGSRTYYRDSVKGRFTISRDNAKITLYLQMDSLRSEDTATYYCARHGSGYFDYWGQGVMVTVSS[not shown - about 450 residues with a human IgG1 Fc and changes]
light: B1 light

- Fold change from rhIL-2 (NK-92), pSTAT5 titration [1]: 0 fold
- Fold change from hIL-2 (NK-92) [2]: 1 fold
- Fold change from rhIL-2 (TF1 + IL-2Rβ) [3]: 1 fold
- Fold change from rhIL-2 (TF1 + IL-2Rβ), pSTAT5 titration [4]: 0 fold
B11: 1H3-hIgG1-L6-hIL-2 (L19A) (protein)
heavy: EVQLVESGGGLVQPGRSLKLSCAVSGFTFSDYAMAWVRQAPKKGLEWVATISYDGSRTYYRDSVKGRFTISRDNAKITLYLQMDSLRSEDTATYYCARHGSGYFDYWGQGVMVTVSS[not shown - about 450 residues with a human IgG1 Fc and changes]
light: B1 light
